Hit rate of the full screen: of about 370,000 compounds, about 150 (0.041%) were called active. The inconclusive results got no clear call from the source; some entries with a clear call stand among them for comparison. Calls come from the whole dose curve; as a rule, active = well fitted inhibition curve with a large enough effect; inconclusive = small, poorly fitted or top-dose-only effect; inactive = flat fitted curve, though single readings scatter. Potencies of inconclusive entries are left out as doubtful fits.
molecular target: Beta-lactamase (Escherichia coli (strain K12)) (UniProt P00811); experiment: qHTS Inhibitors of AmpC Beta-Lactamase (assay with detergent); conditions: AmpC hydrolysis of nitrocefin, absorbance 480 nm, 0.01% Triton; activity change, negative = inhibition: at 114 µM (top of the series); note: nearly all actives have a fitted effect of over 25% in size;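 for activity change, negative = inhibition: 0% = no-compound wells and -100% = no-enzyme wells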
Procedure, shortened: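 20 mM phosphate pH 7.0 + 0.01% (detergent screen) or 0.0001% Triton X-100; 5.3 nM AmpC reagent; cpd preinc 15 min RT; nitrocefin (800 uM stock) to start; A480 q20 s × 4 min; Activity was normalised to no-enzyme and no-compound control wells.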
Potency is the fitted concentration of half-maximal effect; tags give direction and shape of the fitted curve.

UniProt P00811, sequence (P00811 whole entry, looked up): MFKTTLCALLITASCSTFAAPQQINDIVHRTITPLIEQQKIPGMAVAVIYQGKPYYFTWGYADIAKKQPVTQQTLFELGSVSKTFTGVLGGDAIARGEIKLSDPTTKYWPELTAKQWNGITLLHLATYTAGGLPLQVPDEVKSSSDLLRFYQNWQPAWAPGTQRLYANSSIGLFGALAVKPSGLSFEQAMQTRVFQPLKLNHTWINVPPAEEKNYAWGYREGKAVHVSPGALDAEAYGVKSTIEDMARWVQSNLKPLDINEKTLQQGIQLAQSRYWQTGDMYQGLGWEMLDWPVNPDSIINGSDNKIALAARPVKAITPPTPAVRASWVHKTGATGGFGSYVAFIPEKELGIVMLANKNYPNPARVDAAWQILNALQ

Q: For `CC1=C(C(=O)Nc2ccccc2)C(c2cccc([N+](=O)[O-])c2)Nc2nc3ccccc3n21` (stereo not given), which Potency is on record?
A: inconclusive [inhibitor, full curve, poor fit]

Q: Which “activity change, negative = inhibition” value does the source give for `COc1ccc(-c2nnc(SCC(=O)Nc3ncc(C(F)(F)F)cc3Cl)n2CC(C)C)cc1` here?
A: inactive: -2.14%

Q: For `CCc1cc(=O)oc2cc(OCC(=O)N3CC[C@@]4(O)CCCC[C@H]4C3)ccc12`, which Potency is on record?
A: inconclusive [inhibitor, partial curve, poor fit]

Q: For `CCCCc1ccc(/C=C2\C(=O)ON=C2c2ccccc2)s1`, which Potency is on record?
A: inconclusive [inhibitor, full curve, poor fit]

Q: Which Potency does the source give for `Cn1c(N)c(C(=O)COC(=O)c2cccc(S(=O)(=O)N3CCCCC3)c2)c(=O)n(C)c1=O` here?
A: inconclusive [inhibitor, partial curve, poor fit]

Q: With `CCOc1ccc(NC(=O)COC(=O)CC2CCCCC2)cc1` as the compound, how does the Potency read?
A: inconclusive [inhibitor, partial curve]

Q: `Cc1ccc(CNC(=S)Nc2cc(C(=O)O)ccc2C)cc1` was tested. Which “activity change, negative = inhibition” value did it give?
A: inactive: -0.565%

Q: Which “activity change, negative = inhibition” value does the source give for `O=C(O)c1ccc(N=Nc2c(O)ccc3ncccc23)cc1` here?
A: inactive: -0.294%

Q: Which “activity change, negative = inhibition” value does the source give for `COC(c1ccccc1)c1nnc(CCC(=O)N(C)Cc2cccc(-n3cccn3)c2)o1` (stereo not given) here?
A: inactive: 8.38%

Q: `O=C(CSc1nc2ccccc2o1)Nc1nc2ccccc2s1` was tested. Which “activity change, negative = inhibition” value did it give?
A: inactive: -13%

Q: With `CCN(CC(=O)Nc1ccc(NC(C)=O)cc1)C(=O)/C=C/c1cn(Cc2ccccc2)nc1-c1cccnc1` as the compound, how does the Potency read?
A: inconclusive [inhibitor, full curve, poor fit]

Q: How did the Potency turn out when `O=C(NNc1ccccn1)C(=O)NNS(=O)(=O)c1ccc(F)cc1` was run?
A: inconclusive [inhibitor, full curve, poor fit]

Q: How did the “activity change, negative = inhibition” value turn out when `CCCCNC(=S)N(C)/N=C/c1c(C)[nH]c2ccccc12` was run?
A: inactive: -0.557%

Q: For `COc1ccccc1CCC(=O)Nc1cccc(S(=O)(=O)N2CCOCC2)c1`, which Potency is on record?
A: inconclusive [inhibitor, full curve, poor fit]

Q: With `CC(C)c1ccc(NC(=O)CCNS(=O)(=O)c2cccc3nsnc23)cc1` as the compound, how does the Potency read?
A: inconclusive [inhibitor, partial curve, poor fit]

Q: Which “activity change, negative = inhibition” value does the source give for `CCOC(=O)c1csc(NC(=O)CCSc2ccccc2)n1` here?
A: inactive: -12.1%

Q: Which Potency does the source give for `COc1cc(NC(=O)C/C(C)=N/NC(=O)C(OC)c2ccccc2)c(OC)cc1Cl` (stereo not given) here?
A: inconclusive [inhibitor, single point]

Q: For `CCn1cc(C(=O)O)c(=O)c2cc3c(cc21)OCO3`, which “activity change, negative = inhibition” value is on record?
A: inactive: -1.24%

Q: `O=C(N/N=C/c1ccc2c(c1)OCO2)C(=O)Nc1ccccc1Cl` was tested. Which “activity change, negative = inhibition” value did it give?
A: inactive: -3.33%

Q: `Cc1cc[n+](CC(=O)c2cc3ccccc3oc2=O)cc1` was tested. Which Potency did it give?
A: inconclusive [inhibitor, full curve]

Reference: PubChem BioAssay AID485294 (National Center for Advancing Translational Sciences (NCATS), 2010)
